Measured values published in PubChem BioAssay (NCATS).
The shares of active, inactive and inconclusive entries below differ from those in the screen. A potency beside an inconclusive call is a rough fit, not a confirmed value. Active and inactive are the calls of the source. Unless noted, calls follow the shape of the dose curve; as a rule, active = well fitted curve in the direction sought with a large enough effect; inconclusive = small, poorly fitted or top-dose-only effect, or another doubt; inactive = no such curve, though single readings can be large; an effect the other way counts as inactive or inconclusive.

What was measured:
[1] = biological target: Aldehyde dehydrogenase, mitochondrial (Homo sapiens) (UniProt P05091); test: qHTS for Inhibitors of the Aldehyde Dehydrogenase Family (ALDH2) Confirmatory screens (AID 2061303; active = well fitted inhibition curve with a large enough effect; inconclusive = small, poorly fitted or top-dose-only effect; inactive = no such curve, though single readings can be large or run the other way; title and protocol of this record describe different tests; also: nearly all actives have a fitted effect of over 45% in size); conditions: ALDH inhibition qHTS; activity change, negative = inhibition: at 45.4 µM (top of the series)
[2] = qHTS for Inhibitors of the Aldehyde Dehydrogenase Family (ALDH1A2, ALDH1A3, ALDH2, ALDH3A1) (AID 2061307); conditions: ALDH inhibition qHTS; activity change, negative = inhibition: at 50.3 µM (top of the series) unless noted; also: nearly all actives have a fitted effect of over 50% in size; as to potency: test system not described further here
[3] = biological target: Aldehyde dehydrogenase, mitochondrial (Homo sapiens) (UniProt P05091); test: qHTS for Inhibitors of the Aldehyde Dehydrogenase Family (ALDH2) Primary screen (AID 2061308); also: nearly all actives have a fitted effect of over 55% in size
[4] = biological target: Retinaldehyde dehydrogenase 3 (Homo sapiens) (UniProt P47895); test: qHTS for Inhibitors of the Aldehyde Dehydrogenase Family (ALDH1A3) Confirmatory screens (AID 2061311); conditions: activity change, negative = inhibition: at 46 µM (top of the series); also: nearly all actives have a fitted effect of over 60% in size
[5] = biological target: Retinal dehydrogenase 2 (Homo sapiens) (UniProt O94788); test: qHTS for Inhibitors of the Aldehyde Dehydrogenase Family (ALDH1A2) Confirmation screens (AID 2061314); conditions: activity, negative = inhibition: at 45.9 µM (top of the series) unless noted; also: nearly all actives have a fitted effect of over 65% in size
[6] = biological target: Aldehyde dehydrogenase 1A1 (Homo sapiens) (UniProt P00352); test: qHTS for Inhibitors of the Aldehyde Dehydrogenase Family (ALDH1A1) Confirmatory screens (AID 2061316); conditions: activity change, negative = inhibition: at 47.3 µM (top of the series); also: nearly all actives have a fitted effect of over 65% in size
Potency is read from the fitted curve at half-maximal effect; tags tell the direction and shape of the fitted curve.

Structure (SMILES)	Potency [1]	Potency [2]	Potency [3]	Potency [4]	Potency [5]	Potency [6]
FC(F)(F)c1cnc(N2CCN(C(=S)Nc3cc(Cl)ccn3)CC2)c(Cl)c1	active: 7.12 µM	active: 5.65 µM	active: 12.6 µM	inconclusive: 22.4 µM [inhibitor, full curve, poor fit]	inconclusive: 5.65 µM [inhibitor, full curve]	active: 2.52 µM
Cc1cc(-c2nnc3n2CCCCC3)c(C)n1-c1ccc(Br)cc1	inactive	inactive	inconclusive: 28.2 µM [inhibitor, partial curve, poor fit]	inconclusive: 22.5 µM [inhibitor, partial curve, poor fit]	inconclusive: 28.3 µM [inhibitor, partial curve, poor fit]	active: 12.7 µM
CC1=CCC2C(C)(CO)CCCC2(CO)C1CO (stereo unspecified)	inconclusive: 20.1 µM [inhibitor, partial curve, poor fit]	inactive	inactive	inconclusive: 12.7 µM [inhibitor, partial curve]	inconclusive: 35.7 µM [inhibitor, partial curve, poor fit]	inconclusive: 35.7 µM [inhibitor, partial curve, poor fit]
O=C1Cc2cc(S(=O)(=O)N3CCN(c4ccc(F)cc4)CC3)ccc2N1	inconclusive: 32.6 µM [inhibitor, partial curve, poor fit]	inactive	inconclusive: 17.8 µM [inhibitor, partial curve, poor fit]	inactive	inactive	inconclusive: 51.7 µM [inhibitor, partial curve]
C[C@@H]1CN(Cc2ncccn2)C[C@H]1c1nc2c(cnn2C2CCOCC2)c(=O)[nH]1	inactive	inactive	inconclusive: 11.2 µM [inhibitor, partial curve, poor fit]	inactive	inactive	inconclusive: 25.2 µM [inhibitor, partial curve, poor fit]
COc1ccc(-c2no[n+]([O-])c2C#N)cc1	inactive	inconclusive: 0.199 µM [inhibitor, full curve, poor fit]	inconclusive: 12.6 µM [inhibitor, partial curve, poor fit]	inconclusive: 1.12 µM [inhibitor, full curve, poor fit]	inconclusive: 14.2 µM [inhibitor, partial curve]	inconclusive: 12.7 µM [inhibitor, partial curve]
O=C(Nc1ccc(F)c(C(F)(F)F)c1)Nc1nnc(C2CCCCC2)s1	inactive	inactive	active: 8.91 µM	inactive	inactive	inconclusive: 31.8 µM [inhibitor, single point]
N#Cc1c(-c2ccc(Cl)cc2)no[n+]1[O-]	inconclusive: 25.2 µM [inhibitor, partial curve, poor fit]	inconclusive: 10.1 µM [inhibitor, partial curve]	active: 7.94 µM	inconclusive: 22.5 µM [inhibitor, partial curve, poor fit]	active: 10.1 µM	inconclusive: 20.1 µM [inhibitor, partial curve]
O=S1(=O)N=C(Sc2ccc3c(c2)OCCO3)c2ccccc21	inactive	inconclusive: 0.1 µM [inhibitor, full curve, poor fit]	inconclusive: 15.8 µM [inhibitor, partial curve]	inconclusive: 4 µM [inhibitor, full curve]	inconclusive: 0.565 µM [inhibitor, full curve]	inconclusive: 25.1 µM [inhibitor, partial curve]
O=C1c2ccccc2NC(c2ccc(-c3ccc(F)cc3)o2)N1O (stereo unspecified)	active: 1.58 µM	inconclusive: 7.12 µM [inhibitor, partial curve]	active: 3.55 µM	inconclusive: 5.04 µM [inhibitor, full curve]	active: 12.7 µM	active: 2.52 µM
N#Cc1c(-c2cccc(Cl)c2)no[n+]1[O-]	inconclusive: 35.7 µM [inhibitor, partial curve, poor fit]	active: 12.7 µM	active: 8.91 µM	inconclusive: 25.2 µM [inhibitor, partial curve]	active: 5.04 µM	inconclusive: 15.9 µM [inhibitor, partial curve]
